Assay results as given in PubChem BioAssay AID1508623 (National Center for Advancing Translational Sciences (NCATS), 2021).
The whole screen tested about 48,000 compounds, of which about 450 (0.94%) were called active. About 19% were inconclusive and are not listed. The call rests on the fitted dose curve; in most records, active means well fitted inhibition curve with a large enough effect; inconclusive means small, poorly fitted or top-dose-only effect; inactive means no such curve, though single readings can be large or run the other way. The list shows a part of the results.

Experiment: Primary qHTS for Identification of Small Molecule Inhibitors of Huntingtin Promoter Activity; further: nearly all actives have a fitted effect of over 50% in size
Conditions: HEK293 HTT promoter firefly luciferase reporter (activity 0% = vehicle and -100% = no light), 24 h; series mostly up to 57.5 µM; activity change, negative = inhibition: at the top concentration
Procedure, shortened: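 HEK293 cells carrying firefly luciferase reporters were seeded at 2,500 per well in Opti-MEM and cultured for 24 h. They were then treated with compounds at up to 57.5 uM final for 24 h at 37 degrees C before Dual-Glo luminescence readout.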
Potency means the concentration at half of the fitted maximal effect.

| SMILES | activity change, negative = inhibition | Potency |
| --- | --- | --- |
| CC(=O)OCC(=O)NCCCOc1cccc(CN2CCCCC2)c1 | inactive: 3.09% | – |
| CCOC(=O)Cn1c(=O)oc2cc(S(=O)(=O)Nc3cc(OC)cc(OC)c3)ccc21 | inactive: -18.6% | – |
| COc1ccccc1C(=O)NCc1ccc2c(c1)CCN2C(=O)c1cccc(C)c1 | inactive: -28.8% | – |
| COc1ccc(N2CCN(C(=O)C3CCN(S(=O)(=O)c4cnc[nH]4)CC3)CC2)cc1 | inactive: -15.8% | – |
| COC(=O)C1=C(C)NC(COC(N)=O)=C(C(=O)OC(C)C)C1c1cccc(Cl)c1Cl (centres undefined) | inactive: -16.7% | – |
| CN1CCN(C(c2ccc(F)cc2)c2sc3nc(-c4ccco4)nn3c2O)CC1 (centres undefined) | inactive: 33.8% | – |
| O=C(Nc1ccccc1F)C(Cc1ccccc1)n1cccc1 (centres undefined) | inactive: -0.538% | – |
| COc1ccc(-c2c3c(=O)n(C)c(=O)n(C)c3c3c(-c4ccccc4)nc4ccccc4n23)cc1 | inactive: -7.9% [at 11.5 µM] | – |
| CNC(=O)c1cc2c(n(-c3ccc(C)cc3)c1=O)CC(C)(C)CC2=O | inactive: 0.745% | – |
| COc1cccc(C(=O)Nc2ccc3oc(-c4ccc5ccccc5c4)nc3c2)c1 | inactive: 20% | – |
| COc1cc(OC)cc(-c2nc3nc(C)c(CCC(=O)Nc4ccc(Cl)cc4)c(C)n3n2)c1 | inactive: -21.5% | – |
| COC(=O)c1sccc1S(=O)(=O)N1CCN(c2ccccc2)CC1 | inactive: -12% | – |
| CCOc1ccc(CCNC(=O)CCc2c(C)nc3c4c(C)cc(C)nc4nn3c2C)cc1 | inactive: -8.37% | – |
| Cc1ccc2[nH]c(=O)c3cc(C(=O)N4CCN(c5ccccc5)CC4)sc3c2c1 | inactive: -5.11% | – |
| COc1cccc(NC(=O)NCc2ccc3c(c2)CCN3C(=O)c2ccccc2)c1 | inactive: -13.8% | – |
| Cc1cccc(C(=O)Nc2sc3c(c2C(=O)NCc2ccco2)CCCC3)c1 | inactive: 22.2% | – |
| CCN(CC)S(=O)(=O)c1ccc2c(c1)N(CC(=O)NCCCN1CCN(c3ccccc3F)CC1)C(=O)CO2 | inactive: -3.86% | – |
| CCc1ccc(NC(=O)c2cc(C(C)=O)n3ccccc23)cc1 | inactive: 27.9% | – |
| CC(C)c1ccc(C2N3CC4(C)CN2CC(c2ccccc2)(C3)C4=O)cc1 (centres undefined) | inactive: -15.9% | – |
| CCCc1nn2c(=O)cc(COC(=O)c3cccc(NC(=O)COc4ccc(F)cc4)c3)nc2s1 | inactive: 1.75% | – |
| CCOC(=O)c1scc(-c2ccccc2)c1S(=O)(=O)Nc1ccccc1F | inactive: -26.3% | – |
| Clc1cccc(N2CCN(c3ncnc4c3nc3n4CCCCC3)CC2)c1 | – | active: 10 µM |
| Cc1nc(-c2ccc(Cl)cc2)sc1CCNC(=O)C(=O)Nc1ccc(F)cc1F | inactive: -5.87% | – |
| Cc1cc(C)c(Cn2c3ccccc3c3cnn(CC(=O)NC4CCC(C)CC4)c(=O)c32)c(C)c1 (centres undefined) | inactive: -25.4% | – |
| O=C(O)c1cc(NC2(c3ccccc3)C(=O)c3ccccc3C2=O)ccc1Cl | inactive: -2.92% | – |

| SMILES | activity change, negative = inhibition | Potency |
| --- | --- | --- |
| CCc1ccc(NC(=O)CN2CCN(Cc3ccccc3)S2(=O)=O)cc1 | inactive: -13.6% | – |
| Cc1oc2c(c(C)cc3oc(=O)c(CC(=O)NCCc4ccccc4F)c(C)c32)c1C | inactive: -2.91% | – |
| Cc1ccc(Cn2c(C(=O)O)c(CNCc3ccccc3Cl)c3ccc(C)cc32)cc1 | inactive: -20.1% | – |
| Cc1ccccc1-n1c(SCC(=O)Nc2ccc(Cl)cc2F)nnc1-c1cc2occc2n1C | inactive: -16.3% | – |
| Cc1cccc(NC(=O)CCCn2c(C)c3cnn(-c4ccccc4)c(=O)c3c2C)c1C | inactive: -17.2% | – |
| CCOc1ccccc1CNS(=O)(=O)c1ccc2c(c1)CCCN2C(C)=O | inactive: -26.7% | – |
| O=C(Cn1ccn(-c2ccc(F)c(F)c2)c(=O)c1=O)Nc1ccccc1F | inactive: -7.33% | – |
| COc1cccc(NC(=O)CSc2nc3c(oc4ccccc43)c(=O)n2Cc2ccco2)c1 | inactive: -28.7% | – |
| O=C(CCSc1nc(-c2ccco2)cc(C(F)(F)F)n1)Nc1cccc(O)c1 | inactive: -26.6% | – |
| O=C(Nc1ccc2oc(-c3cccnc3)nc2c1)c1cccc(Br)c1 | inactive: -6.77% | – |
| Cc1ccc(N(CC(=O)NCCc2ccc(Cl)cc2)S(=O)(=O)N(C)C)cc1 | inactive: -28.1% | – |
| CC(C)CCNC(=O)CCCN1C(=O)c2ccccc2Sc2ncccc21 | inactive: -17.3% | – |
| COc1cc(-c2noc(CN3CCN(c4ccccc4)CC3)n2)cc(OC)c1OC | inactive: 8.59% | – |
| CCOC(=O)c1ccccc1NC(=O)N1CCc2c(sc(C)c2CC)C1c1ccccc1 (centres undefined) | inactive: -24.3% | – |
| Cc1cccc(NC(=O)C(=O)NCC(c2ccc3c(c2)OCO3)N2CCOCC2)c1C (centres undefined) | inactive: -23.9% | – |
| CN1CCN(C(CNC(=O)c2cccc(F)c2)c2ccc3c(c2)OCO3)CC1 (centres undefined) | inactive: -8.1% | – |
| CCOc1ccc(-n2c(Cc3ccccc3)nnc2SCc2nc(-c3ccccc3OC)no2)cc1 | inactive: -15% | – |
| Cc1cc(C)c(NC(=O)C2CCN(c3nc4ccccc4[nH]3)CC2)c(C)c1 | inactive: 3.16% | – |
| Fc1ccc(C(c2ccc(F)cc2)N2CCN(CC=Cc3ccccc3)CC2)cc1 | inactive: -19.8% | – |
| O=C(Nc1ccc2oc(-c3ccccc3F)nc2c1)c1ccccc1Cl | inactive: 25% | – |
| Cc1cccc(CSc2ncc(CO)n2Cc2ccc(F)cc2)c1 | inactive: -13.7% | – |
| Cc1ccc2c(c1)-c1nc(-c3ccc(Cl)cc3)cc(-c3coc4ccccc4c3=O)c1CO2 | inactive: -15% | – |
| CCCSc1ncc(Cl)c(C(=O)Nc2ccc(S(=O)(=O)Nc3ncccn3)cc2)n1 | inactive: -15.1% | – |
| COc1ccc(NC(=O)CSc2ncc3c(n2)-c2cc(Cl)ccc2N(Cc2ccccc2F)S3(=O)=O)cc1 | inactive: -8.76% | – |
